# Data: PubChem BioAssay AID504832 (National Center for Advancing Translational Sciences (NCATS), 2011)
# About 18,000 (5.8%) of roughly 310,000 compounds were called active. The shares of active, inactive and inconclusive entries below differ from those in the screen. The call rests on the fitted dose curve; in most records, active means well fitted inhibition curve with a large enough effect; inconclusive means small, poorly fitted or top-dose-only effect, or another doubt; inactive means no such curve, though single readings can be large or run the other way. Potencies of inconclusive entries are left out as doubtful fits.
# Assay: Primary qHTS for delayed death inhibitors of the malarial parasite plastid, 48 hour incubation
# Details: P. falciparum luciferase growth in erythrocytes; series mostly up to 28.7 µM
# Method in brief: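 Here the parasites carry a stable luciferase gene and grow inside erythrocytes in Albumax-based RPMI medium with compound for one erythrocytic cycle. Activity is scored as loss of luminescent signal.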
# Potency means the concentration at half of the fitted maximal effect; tags describe the fitted curve by direction and shape.
row,Structure (SMILES),Potency
1,O=C(Nc1ccc(S(=O)(=O)Nc2ncccn2)cc1)c1cccnc1,inactive
2,CCn1c(=N)n(CC(=O)c2ccc(OC)cc2)c2ccccc21,inactive
3,O=C(COc1ccc(S(=O)(=O)N2CCCC2)cc1Cl)N1CCN(c2ccccc2)CC1,"inconclusive [inhibitor, single point]"
4,COc1ccc(CCN2C(=O)c3cccc4c(C(=O)N5CCCCC5)ccc(c34)C2=O)cc1OC,"inconclusive [inhibitor, single point]"
5,COc1ccc(C2c3c(-c4cc(Cl)c(C)cc4O)n[nH]c3C(=O)N2Cc2cccnc2)cc1OC (configuration not stated),active: 3.29 µM
6,CCOc1ccc(N(Cc2cc3cc(C)ccc3[nH]c2=O)S(=O)(=O)c2ccccc2)cc1,inactive
7,COc1ccc(-c2nc(CSCC(=O)N3CCN(c4cccc(C)c4)C(C)C3)c(C)o2)cc1OC (configuration not stated),"inconclusive [inhibitor, single point]"
8,Cc1cccc(Oc2ccccc2NC(=O)C2=COCCO2)c1,"inconclusive [inhibitor, single point]"
9,Cc1ccc(C)c(NC(=S)NC(NC(=O)Cc2ccccc2)C(Cl)(Cl)Cl)c1 (configuration not stated),"inconclusive [inhibitor, partial curve]"
10,O=C(Nc1c(C(=O)N2CCC(N3CCCCC3)CC2)oc2ccccc12)c1ccc(F)cc1,"inconclusive [inhibitor, single point]"
11,Cc1ccc(CC(=O)N2CCN(C(=O)C3CCCO3)CC2)cc1 (configuration not stated),inactive
12,COc1ccc(S(N)(=O)=O)cc1C(=O)NCCCN1CCN(c2ccc(C)cc2)CC1,"inconclusive [inhibitor, single point]"
13,Cc1cccc(OCC(=O)Nc2ccc(N3CCN(C(=O)c4ccco4)CC3)cc2)c1C,"inconclusive [inhibitor, single point]"
14,Cc1cccc(/C(N)=N/OC(=O)C23CC4CC(CC(C4)C2)C3)c1,"inconclusive [inhibitor, partial curve]"
15,CCN1c2ccccc2-c2nc3ccccc3n2C1c1ccco1 (configuration not stated),active: 11.7 µM
16,O=C(Nc1ccc(Br)cc1)c1ccc(F)c(S(=O)(=O)N2CCN(c3ccccn3)CC2)c1,"inconclusive [inhibitor, partial curve, poor fit]"
17,CCCC(C(=O)Nc1ccc(S(=O)(=O)N2CCOCC2)cc1)c1ccccc1 (configuration not stated),active: 13.1 µM
18,C/C(=N\NC(=S)NCc1ccccc1)c1ccccc1F,"inconclusive [inhibitor, single point]"
19,CCOC(=O)CNC(c1ccccc1)c1cc(Br)ccc1NC(=O)OCC (configuration not stated),"inconclusive [inhibitor, single point]"
20,CCOC(=O)c1c(S(=O)(=O)NCCc2ccco2)c(C)n(C)c1C,inactive
21,COCCN(C(=O)COC(=O)c1ccccc1NCc1ccco1)c1c(N)n(Cc2ccccc2)c(=O)[nH]c1=O,"inconclusive [inhibitor, partial curve]"
22,COc1ccccc1Cn1c(=O)c2ccccc2n2c(Sc3ncnc4sccc34)nnc12,"inconclusive [inhibitor, single point]"
23,CCc1ccc(OCC(=O)NNC(=O)C2CCC2)cc1,inactive

row,Structure (SMILES),Potency
1,CCc1ccc(-c2cc(C(F)(F)F)n3nc(C(=O)Nc4cnn(Cc5ccccc5C)c4)cc3n2)s1,"inconclusive [inhibitor, full curve]"
2,O=C(Nc1c2c(nn1-c1ccccc1)CS(=O)(=O)C2)c1cc2ccccc2o1,inactive
3,O=C(Nc1nnc(SCC(=O)N2CCOCC2)s1)C1CC(=O)N(c2ccc(F)cc2)C1 (configuration not stated),"inconclusive [inhibitor, single point]"
4,O=C(Nc1ccc(NC(=O)c2ccccc2Cl)cc1)c1cccnc1,"inconclusive [inhibitor, partial curve, poor fit]"
5,CC(=O)c1ccc(Nc2c(C)n(C)n(-c3ccccc3)c2=O)cc1,"inconclusive [inhibitor, partial curve, poor fit]"
6,CCN1CCN(CCCNC(=O)c2ccc(CS(=O)c3ccc(Br)cc3)o2)CC1 (configuration not stated),inactive
7,Cc1ccc(NC(=O)c2cccc(S(=O)(=O)NCc3ccccc3)c2)nc1,"inconclusive [inhibitor, single point]"
8,O=C(COC(=O)c1ccccc1O)Nc1cc([N+](=O)[O-])ccc1Cl,inactive
9,CCC(C(=O)NC1CCCC1)N(C(=O)Cn1nnc(-c2ccc(C)o2)n1)c1cnc2ccccc2c1 (configuration not stated),"inconclusive [inhibitor, partial curve, poor fit]"
10,CN(CC(=O)NCc1ccncc1)S(=O)(=O)c1ccc(F)cc1,inactive
11,Cc1cccc(NC(=O)c2ccc(CN3CCN(Cc4ccccc4)CC3)cc2)c1,"inconclusive [inhibitor, single point]"
12,CC(C)(C)NC(=O)C(c1ccco1)N(C(=O)Cn1nnc(-c2ccc(F)cc2)n1)c1cccc(F)c1 (configuration not stated),"inconclusive [inhibitor, single point]"
13,CCCCn1c(N)c(N(CC(C)C)C(=O)CSC(C)C(=O)Nc2cc(C)on2)c(=O)[nH]c1=O (configuration not stated),"inconclusive [inhibitor, single point]"
14,COc1ccc(NC(=O)c2ccccn2)cc1S(=O)(=O)N1CCOCC1,inactive
15,C#CCOCCOCCOCCNc1nc(N2CCN(C(=O)[C@H](CCC(=O)O)n3cc(C(N)CC(C)C)nn3)CC2)nc(N2CCN(C(=O)[C@H](Cc3ccc(O)cc3)n3cc(C(N)[C@H](C)CC)nn3)CC2)n1 (some centres not stated),inactive
16,CC1(C)CC(NC(=O)COc2ccc([N+](=O)[O-])cc2)CC(C)(C)N1,inactive
17,CN(C)CCCNC(=O)c1cc(C(=O)Cc2ccc(Cl)cc2)c[nH]1,"inconclusive [inhibitor, single point]"
18,CNC(=O)/C(C#N)=C/c1cc(C)n(-c2ccc(N3CCOCC3)cc2)c1C,inactive
19,COc1ccc(C2C(C(=O)Nc3cc(OC)c(OC)c(OC)c3)c3ccccc3C(=O)N2C)cc1 (configuration not stated),active: 2.08 µM
20,COc1cccc(N(C(=O)Cn2nnc(-c3ccc(C)o3)n2)C(C(=O)NC(C)(C)C)c2cccs2)c1 (configuration not stated),active: 13.1 µM
21,CC(=O)Oc1ccc(N(C(C)=O)S(=O)(=O)c2cccs2)c2ccccc12,active: 4.15 µM
22,COc1ccc(C(=O)/C=C2/C(=O)Nc3ccccc32)c(OC)c1,inactive
23,CC(C)(C)OC(=O)N1CCC[C@H]1C(=O)N/N=C/c1cccc2nccnc12,active: 14.7 µM

row,Structure (SMILES),Potency
1,C1=C(c2c[nH]c3ccccc23)CCN(Cc2ccccc2)C1,"inconclusive [inhibitor, partial curve]"
2,COc1ccc(/C=C/C(=O)NC(=S)NCCc2ccc(OC)c(OC)c2)cc1,"inconclusive [inhibitor, single point]"
3,Cc1ccc(CNC(=O)c2cc3c(=O)n4cccc(C)c4nc3n(CC3CCCO3)c2=N)cc1 (configuration not stated),"inconclusive [inhibitor, full curve]"
4,O=C(CSc1cccc[n+]1[O-])Nc1c(Br)cc([N+](=O)[O-])cc1Br,"inconclusive [inhibitor, single point]"
5,O=C(Cc1cn2ccsc2n1)NCc1ccccc1,inactive
6,Cc1cc(C2C(=O)c3ccccc3C2=O)c(C)c(C)c1C,"inconclusive [inhibitor, single point]"
7,O=C(CCS(=O)(=O)c1ccc(Cl)cc1)Nc1nnc(-c2cccs2)o1,"inconclusive [inhibitor, single point]"
8,CCOc1ccc(NC(=O)CN(C)C(=O)C2CCN(C(=O)c3ccc(Cl)cc3)CC2)cc1OCC,"inconclusive [inhibitor, single point]"
9,COc1ccc(CN=C2NN=C(c3ccc(Cl)cc3)CS2)cc1,inactive
10,Cc1ccc(NC(=O)C2CCN(S(=O)(=O)c3cccs3)CC2)cc1,"inconclusive [inhibitor, partial curve, poor fit]"
11,COc1ccccc1/C=C1\SC(=S)N(CCC(=O)NCCCn2ccnc2)C1=O,"inconclusive [inhibitor, single point]"
12,CCN(CC(=O)Nc1ccc(NC(C)=O)cc1)C(=O)/C=C/c1cn(-c2ccccc2)nc1-c1ccc(C)cc1,"inconclusive [inhibitor, single point]"
13,CC(C)c1ccccc1OCC(=O)Nc1ccccc1C(=O)N1CCOCC1,"inconclusive [inhibitor, single point]"
14,O=C(COc1cccc(C(F)(F)F)c1)Nc1ccc2[nH]ncc2c1,inactive
15,COc1cc(/C=C/C(=O)OCC(=O)Nc2cc(C(F)(F)F)ccc2N2CCOCC2)ccc1O,"inconclusive [inhibitor, partial curve, poor fit]"
16,CCc1ccc(/C(C)=N/Nc2cc(Cl)nc(C)n2)cc1,inactive
17,COc1ccccc1-c1oc2ccccc2c1-c1ccc2c(c1)OCO2,"inconclusive [inhibitor, partial curve]"
18,CC(C)c1ccc(Nc2ncccc2C(=O)O)cc1,inactive
19,O=[N+]([O-])c1ccc(N/N=C/c2ccc(O)c(O)c2O)c(S(=O)(=O)N2CCOCC2)c1,"inconclusive [inhibitor, single point]"
20,CC(=O)N(Cc1cccs1)Cc1cc2ccc(C)c(C)c2nc1Cl,"inconclusive [inhibitor, single point]"
21,CCOc1ccc(C(c2c(NC(=O)c3ccccc3)sc(C)c2C)N2CCN(CCO)CC2)cc1 (configuration not stated),"inconclusive [inhibitor, single point]"
